Here are results for 58 compounds from article PMC4336329 (PLoS ONE, 2015).

SMILES strings stand for the structures. The campaign covered roughly 310,000 compounds. About 2,200 (0.71%) showed an effect of 50% or more. The effect is printed as a negative number. The list shows a part of the results.

Sequence of human ether-à-go-go-related gene (hERG) potassium channel (Q12809 whole entry, looked up): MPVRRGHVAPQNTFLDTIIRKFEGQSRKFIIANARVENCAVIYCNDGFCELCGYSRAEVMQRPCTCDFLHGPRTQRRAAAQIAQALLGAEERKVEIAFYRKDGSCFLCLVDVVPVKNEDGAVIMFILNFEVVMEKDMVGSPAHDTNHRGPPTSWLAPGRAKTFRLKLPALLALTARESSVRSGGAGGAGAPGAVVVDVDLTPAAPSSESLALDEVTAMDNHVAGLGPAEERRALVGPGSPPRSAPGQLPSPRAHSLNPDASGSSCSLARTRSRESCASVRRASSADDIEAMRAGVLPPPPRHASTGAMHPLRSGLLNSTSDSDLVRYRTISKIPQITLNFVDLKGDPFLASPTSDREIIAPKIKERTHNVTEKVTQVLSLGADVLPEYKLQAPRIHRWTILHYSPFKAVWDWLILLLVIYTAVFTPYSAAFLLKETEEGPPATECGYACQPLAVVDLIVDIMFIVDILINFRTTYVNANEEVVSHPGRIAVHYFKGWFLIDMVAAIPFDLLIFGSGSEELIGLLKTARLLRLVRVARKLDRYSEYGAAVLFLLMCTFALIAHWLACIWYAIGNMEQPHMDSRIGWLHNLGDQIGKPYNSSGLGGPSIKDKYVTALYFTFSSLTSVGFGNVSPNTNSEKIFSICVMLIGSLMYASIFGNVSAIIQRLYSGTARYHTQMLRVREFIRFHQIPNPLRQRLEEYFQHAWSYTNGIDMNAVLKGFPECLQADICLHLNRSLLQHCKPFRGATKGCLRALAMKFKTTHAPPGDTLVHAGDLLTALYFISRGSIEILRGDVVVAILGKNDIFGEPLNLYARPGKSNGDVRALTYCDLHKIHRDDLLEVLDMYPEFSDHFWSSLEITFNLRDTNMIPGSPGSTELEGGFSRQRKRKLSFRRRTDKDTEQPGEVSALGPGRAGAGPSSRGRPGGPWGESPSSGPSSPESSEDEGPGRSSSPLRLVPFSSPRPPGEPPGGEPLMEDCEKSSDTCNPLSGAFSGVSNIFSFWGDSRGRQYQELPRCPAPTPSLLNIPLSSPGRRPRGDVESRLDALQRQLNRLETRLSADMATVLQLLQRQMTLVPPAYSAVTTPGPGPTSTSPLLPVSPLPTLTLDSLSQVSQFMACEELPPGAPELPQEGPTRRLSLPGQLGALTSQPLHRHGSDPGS

This experiment has as its target human ether-à-go-go-related gene (hERG) potassium channel (human, UniProt Q12809). Briefly: primary screen, population patch clamp on CHO cells stably expressing hERG.
Regarding `COC(=O)c1ccc(Cl)c(NC(=O)CN2CCOCC2)c1`, the “hERG current change (%, negative = inhibition) at 1uM” value is reported as 8.67%.
Take `CNCC(O)Cn1c(C(F)(F)F)nc2ccccc21` (stereo not shown): the “hERG current change (%, negative = inhibition) at 1uM” value is given as 15.9%.
With `CCC(C(=O)OCC(=O)Nc1cccc(OC)c1)c1ccccc1` (stereo not shown), the “hERG current change (%, negative = inhibition) at 1uM” value was 6.9%.
The value for `CC(C)NC(=O)C1CC(=O)N(c2ccc(F)c(Cl)c2)C1` (stereo not shown) was 5.09%.
As for `Cc1nc(SCCO)c2oc3ccccc3c2n1`, the “hERG current change (%, negative = inhibition) at 1uM” value came to 15.1%.
The value for `COc1cccc(NC(=S)N(CCc2c(C)[nH]c3ccccc23)Cc2ccco2)c1` was 7.94%; that for `CCOc1ccc(C(=O)CN2CCN(S(=O)(=O)c3ccc(Cl)cc3)CC2)cc1` was -10.4%.
Turning to `O=S(=O)(NCc1ccco1)c1ccc2ccccc2c1`, the “hERG current change (%, negative = inhibition) at 1uM” value was 6.47%.
As to `COC(=O)C1=C(O)/C(=C\c2cc(C)n(-c3ccccc3C)c2C)N=C1C`, the “hERG current change (%, negative = inhibition) at 1uM” value is 11.9%.
In the case of `COc1cccc2c(C)cc(N3CCCCCC3)nc12`, the “hERG current change (%, negative = inhibition) at 1uM” value was -14.6%.
`CCOC(=O)c1c(NC(=O)CSc2nnc(-c3ccc(OC)cc3)o2)sc2c1CCC2`: the “hERG current change (%, negative = inhibition) at 1uM” value amounted to 4.23%.
Take `O=C(C(Cc1ccccc1)N1C(=O)c2ccccc2C1=O)N1c2ccccc2CCc2ccccc21` (stereo not shown): the “hERG current change (%, negative = inhibition) at 1uM” value worked out at 7.57%.
For `CC(C)Oc1ccccc1C(=O)NC(CO)C(=O)O` (stereo not shown), the “hERG current change (%, negative = inhibition) at 1uM” value was 18.7%.
With `Cc1ccc(-n2c3nc(=O)[nH]c(=O)c-3cc3c(C)nn(-c4ccccc4)c32)c(C)c1`, the “hERG current change (%, negative = inhibition) at 1uM” value amounted to 16.2%.
Take `CCN(C(=O)COC(=O)c1ccc(=O)n(Cc2ccccc2)n1)C1CCCCC1`: the “hERG current change (%, negative = inhibition) at 1uM” value was determined as 9.55%.
Take `CCOc1cccc(N)c1`: the “hERG current change (%, negative = inhibition) at 1uM” value is reported as 8.49%.
The value for `COC(=O)c1sccc1NC(=O)c1c(Cl)cccc1Cl` was 17.3%.
For `CC1Cn2c(COc3ccccc3)nnc2S1` (stereo not shown), the “hERG current change (%, negative = inhibition) at 1uM” value came to 6.3%.
The result for `Cc1cccc(-n2c(CNC(=O)c3ccccc3)nnc2SCC(=O)Nc2nccs2)c1` reads 16.6%.
The result for `CC1=CC(C)C(COC(=O)CN2CCCCC2)C(C)C1` (stereo not shown) reads 9.9%.
The result for `Cc1nnc(NC(=O)CSc2ccc([N+](=O)[O-])cn2)s1` reads 2.7%.
As for `O=C(Nc1ccc(Cl)cc1)N1CCCN(c2ccc(C(F)(F)F)cc2[N+](=O)[O-])CC1`, the “hERG current change (%, negative = inhibition) at 1uM” value was found to be 9.25%.
Consider `N#CC1=C(N)C(C#N)(C#N)C(c2cccnc2)C2CN(C(=O)OCc3ccccc3)CC=C12` (stereo not shown), for which the “hERG current change (%, negative = inhibition) at 1uM” value is reported as 3.56%.
Turning to `CCOC(=O)C1CCN(c2nc3ccccc3nc2C(C#N)C(=O)OC(C)COC)CC1` (stereo not shown), the “hERG current change (%, negative = inhibition) at 1uM” value worked out at 0.363%.
The value for `Cc1nc2ccc(NC(=O)CS(=O)(=O)c3ccccc3)cc2s1` was 16.6%; that for `NS(=O)(=O)c1ccc(N=Nc2c(O)[nH]c(=S)[nH]c2=O)cc1` was 16.8%.
The result for `Cc1nc(Sc2nnnn2C)c2c3c(sc2n1)CCC3` reads 3.42%.
The result for `COC(=O)c1ccccc1NC(=O)Nc1cc(C)cc(C)n1` reads -0.329%; that for `O=C(NCc1ccncc1)C(=O)Nc1nc2ccccc2s1`, 1.46%; that for `COC(=O)CCC(=O)c1ccc(OC)c(Cl)c1`, 7.22%.
On to `Nc1cc(S(=O)(=O)C(F)(F)F)ccc1C(=O)O`, for which the “hERG current change (%, negative = inhibition) at 1uM” value was found to be 13.3%.
For `CCCn1nc(C(=O)NC2CCCCCC2)c2ccccc2c1=O`, the “hERG current change (%, negative = inhibition) at 1uM” value stood at 0.398%.
The result for `COc1ccc(NC(=O)c2cc3ccccc3o2)cc1` reads 6.91%; that for `O=C(N/N=C/c1ccccc1)c1c(O)c2ccccc2[nH]c1=O`, 3.01%; that for `CS(=O)(=O)Nc1nnc(Cc2ccccc2)s1`, 7.74%.
The value for `N#Cc1cn(Cc2ccncc2)c(=O)[nH]c1=O` was 17.4%; that for `N#C/C(=C\c1ccccc1)c1nc2ncccc2[nH]1` was 9.95%.
With `Cc1ccc(N2C(=O)/C(=C/c3ccco3)SC2=S)cc1`, the “hERG current change (%, negative = inhibition) at 1uM” value was found to be 14.3%.
Take `Cc1ccc(C)c(OCCC(=O)OCC(=O)N2CCN(S(=O)(=O)c3ccc(Cl)cc3)CC2)c1`: the “hERG current change (%, negative = inhibition) at 1uM” value is -1.39%.
The result for `Cc1c(/C=N/NC(=O)c2ccc3c(c2)OCO3)cnn1C` reads 7.92%; that for `CC(C)(C)c1ccc(N/N=C(\C#N)S(=O)(=O)C(C)(C)C)cc1`, 16.5%; that for `COc1cc(C2c3c(oc4c(C)cc(C)cc4c3=O)C(=O)N2Cc2cccnc2)ccc1O` (stereo not shown), 11.9%.
The result for `C=CCOc1ccc(/C=C/C(=O)OCC(=O)NCC2CCCO2)cc1` (stereo not shown) reads -3.07%; that for `CNC(=O)c1cc(Nc2nnc(-c3ccc(O)cc3)c3ccccc23)ccc1OC`, 9.01%; that for `O=C1C2CCCN2C(c2ccccc2F)N1c1ccc(F)cc1` (stereo not shown), 14.2%.
The value for `Cc1ccc(C(=O)OCC(=O)Nc2ccc3c(c2)OCO3)cc1S(=O)(=O)N1CCOCC1` was 4.18%; that for `Cc1c(NC(=S)Nc2cccc(Cl)c2)c(=O)n(-c2ccccc2)n1C` was 4.39%; that for `CCOc1cccc(=O)c2c(C)n(CC3CCCO3)c(C)c12` (stereo not shown) was 8.32%.
For `C/C(N)=C(/C#N)C(=O)COC(=O)c1cc(S(=O)(=O)N2CCCCC2)ccc1C`, the “hERG current change (%, negative = inhibition) at 1uM” value came to 7.07%.
Consider `Cc1ccc(C(F)(F)F)cc1NC(N)=S`, for which the “hERG current change (%, negative = inhibition) at 1uM” value worked out at 3.94%.
The result for `COc1ccc(N(CC(=O)NC2CCCCC2)S(=O)(=O)c2cccnc2)cc1` reads 2.7%; that for `COc1cc2c(cc1OC)-c1cc(Nc3ccccc3)nc(=O)n1CC2`, -8.32%; that for `Cn1c(SCC(=O)Nc2ccc3c(c2)oc2ccccc23)nnc1-c1ccccc1`, 10.9%.
The result for `O=C(c1ccc(Cl)cc1)N1CCc2c([nH]c3ccccc23)C1C(F)(F)F` (stereo not shown) reads 11.8%.
Turning to `Cc1ccc(C)c(N2CCN(C(=O)Cn3ncc4c([nH]c5ccc(C)cc54)c3=O)CC2)c1`, the “hERG current change (%, negative = inhibition) at 1uM” value stood at 15.8%.
Regarding `Clc1cccc(Oc2ncccn2)c1`, the “hERG current change (%, negative = inhibition) at 1uM” value is on record as 10.3%.
Regarding `COc1cc(OC)c(NS(=O)(=O)c2ccc(Cl)c(C(=O)OC(C)C(=O)N3CCCC3)c2)cc1Cl` (stereo not shown), the “hERG current change (%, negative = inhibition) at 1uM” value is listed as -0.0556%.
The result for `Cc1ccc(NC(=S)/C(=C(\[O-])c2ccc(F)cc2)[n+]2ccccc2)cc1` reads 12.1%.
